Results taken from publication PMC3006391.
These are yes or no findings as the source states them, for the method shown. In cells and extracts the contact can be indirect. Some results given as binding are weak or reduced against the parent protein; the word gives no strength. Sequences can lack the tags named with a protein.

Sequences of proteins named here, by UniProt entry; tags and fusion partners are left off. A change or cut given only in a name is not applied to a line headed by its entry. A line that says so, or that is headed by a name, gives the form on record, which may keep a tag or linker. Residues count along the entry.
Bcl-xLΔTM (FLAG-tagged) (Q07817, residues 1-211): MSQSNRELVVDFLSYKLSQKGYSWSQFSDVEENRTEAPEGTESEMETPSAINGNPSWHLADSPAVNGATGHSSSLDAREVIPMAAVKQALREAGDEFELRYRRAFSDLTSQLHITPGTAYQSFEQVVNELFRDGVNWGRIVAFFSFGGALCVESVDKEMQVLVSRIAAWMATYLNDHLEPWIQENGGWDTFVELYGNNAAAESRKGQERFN
Bcl-xLΔBH4 (FLAG-tagged) (Q07817, residues 25-233): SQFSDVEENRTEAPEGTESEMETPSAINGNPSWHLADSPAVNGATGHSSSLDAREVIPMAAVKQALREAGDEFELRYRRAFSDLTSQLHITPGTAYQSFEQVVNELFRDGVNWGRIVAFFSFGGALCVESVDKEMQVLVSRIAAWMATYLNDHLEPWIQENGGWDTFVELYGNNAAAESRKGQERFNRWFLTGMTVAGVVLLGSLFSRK
Bcl-xLY101K (FLAG-tagged) (Q07817-1, form named): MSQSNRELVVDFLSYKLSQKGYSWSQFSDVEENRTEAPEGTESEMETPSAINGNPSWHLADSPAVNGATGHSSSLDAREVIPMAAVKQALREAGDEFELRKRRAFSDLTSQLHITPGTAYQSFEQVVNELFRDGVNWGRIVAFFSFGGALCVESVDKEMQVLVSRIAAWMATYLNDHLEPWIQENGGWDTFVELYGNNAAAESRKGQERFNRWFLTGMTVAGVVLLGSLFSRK
UniProt P10415: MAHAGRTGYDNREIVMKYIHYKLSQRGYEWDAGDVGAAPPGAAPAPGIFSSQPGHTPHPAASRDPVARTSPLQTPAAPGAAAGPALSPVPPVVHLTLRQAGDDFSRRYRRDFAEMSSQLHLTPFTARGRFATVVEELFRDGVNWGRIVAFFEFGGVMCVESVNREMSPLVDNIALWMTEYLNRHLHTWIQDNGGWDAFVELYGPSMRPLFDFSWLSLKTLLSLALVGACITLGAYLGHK

Assays:
[1] = molecular target: T1, Praf2^HA (HEK 293T) (human) (UniProt O60831); test: co-IP; HEK 293T cells co-transfected, lysed after 24 h in CHAPS extraction buffer (50 mM Tris/HCl pH 8.0, 150 mM NaCl, 1% CHAPS); anti-HA agarose 2 h at 4°C; immunoblot with anti-HA and anti-FLAG
T1 sequence: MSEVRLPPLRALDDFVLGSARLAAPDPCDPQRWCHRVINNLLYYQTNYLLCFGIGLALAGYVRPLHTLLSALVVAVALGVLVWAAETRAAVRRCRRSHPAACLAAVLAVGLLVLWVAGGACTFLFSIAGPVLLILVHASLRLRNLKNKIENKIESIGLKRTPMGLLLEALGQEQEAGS

Arl6IP5^HA = molecular target: T2, Arl6IP5^HA (UniProt O75915); test: as above
T2 sequence: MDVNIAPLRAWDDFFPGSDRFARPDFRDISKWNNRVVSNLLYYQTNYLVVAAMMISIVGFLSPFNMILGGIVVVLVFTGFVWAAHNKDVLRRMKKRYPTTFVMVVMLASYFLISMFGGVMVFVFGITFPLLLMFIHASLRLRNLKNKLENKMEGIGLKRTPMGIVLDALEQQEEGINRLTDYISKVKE

Praf2^HA (U2OS) (human) = molecular target: T3, Praf2^HA (U2OS) (human) (UniProt O60831); test: co-IP; U2OS cells transfected with pcDNA3C3xHA/Praf2 or empty vector, CHAPS extraction buffer, 560 µg extract; anti-HA agarose 2 h at 4°C; immunoblot with anti-HA and anti-Bcl-xL (endogenous Bcl-xL)
T3 sequence: T1 sequence

| binding [1] | binding (Arl6IP5^HA) | binding (Praf2^HA (U2OS) (human)) | Substance |
| --- | --- | --- | --- |
| no binding |  |  | Bcl-xLΔTM (FLAG-tagged) (from UniProt Q07817-1 1-211) (domain or fragment) |
| binds | binds |  | ^FLAGBcl-xL (from UniProt Q07817-1 1-233) |

More lines, now with the values behind:

| Substance | binding [1] | binding (Arl6IP5^HA) | binding (Praf2^HA (U2OS) (human)) |
| --- | --- | --- | --- |
| Bcl-xLY101K (FLAG-tagged) (from UniProt Q07817-1 1-233) | binds |  |  |
| Bcl-xLΔBH4 (FLAG-tagged) (from UniProt Q07817-1 25-233) (domain or fragment) | binds |  |  |
| ^FLAGBcl-2 (from UniProt P10415 1-239) | binds | binds |  |
| endogenous Bcl-xL (U2OS) (from UniProt Q07817-1 1-233) |  |  | binds |
